# According to the supplement of paper PMC8728848:
# Some of the results follow.
# How the values were obtained:
# Experiment in all cases: glycan array binding signal (z-score within array); higher = stronger binding
# Settings in all cases: glycan notation: IUPAC condensed, linker removed
# [1] = biological target: GlcNAc(b1-2)Man(a1-3)[GlcNAc(b1-2)Man(a1-6)]Man(b1-4)GlcNAc(b1-4)GlcNAc
# Summary of the method: (§1)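 The binding signal is a Z-score computed within each array. Data were drawn from 3228 arrays in the Consortium for Functional Glycomics database, restricted to those with a known protein sequence. Scores were averaged over arrays of the same protein sequence at different concentrations or buffers, and over linkers, and negative values can be taken as non-binding.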
# [2] = biological target: GlcNAc(b1-2)Man(a1-3)[GlcNAc(b1-2)Man(a1-6)]Man(b1-4)GlcNAc(b1-4)[Fuc(a1-6)]GlcNAc
# Summary of the method: as §1
# [3] = biological target: GlcNAc(b1-2)Man(a1-3)[GlcNAc(b1-4)][GlcNAc(b1-2)Man(a1-6)]Man(b1-4)GlcNAc(b1-4)GlcNAc
# Summary of the method: as §1
# [4] = biological target: GlcNAc(b1-2)Man(a1-3)[GlcNAc(b1-4)][GlcNAc(b1-2)Man(a1-6)]Man(b1-4)GlcNAc(b1-4)[Fuc(a1-6)]GlcNAc
# Summary of the method: as §1
# [5] = biological target: GlcNAc(b1-2)[GlcNAc(b1-4)]Man(a1-3)[GlcNAc(b1-2)Man(a1-6)]Man(b1-4)GlcNAc(b1-4)GlcNAc
# Summary of the method: as §1
# [6] = biological target: GlcNAc(b1-2)[GlcNAc(b1-4)]Man(a1-3)[GlcNAc(b1-4)][GlcNAc(b1-2)Man(a1-6)]Man(b1-4)GlcNAc(b1-4)GlcNAc
# Summary of the method: as §1
# [7] = biological target: GlcNAc(b1-2)[GlcNAc(b1-4)]Man(a1-3)[GlcNAc(b1-4)][GlcNAc(b1-2)[GlcNAc(b1-6)]Man(a1-6)]Man(b1-4)GlcNAc(b1-4)GlcNAc
# Summary of the method: as §1
# [8] = biological target: GlcNAc(b1-2)[GlcNAc(b1-4)]Man(a1-3)[GlcNAc(b1-4)][GlcNAc(b1-2)[GlcNAc(b1-6)]Man(a1-6)]Man(b1-4)GlcNAc(b1-4)[Fuc(a1-6)]GlcNAc
# Summary of the method: as §1
# [9] = biological target: GlcNAc(b1-2)[GlcNAc(b1-6)]Man(a1-6)[GlcNAc(b1-2)Man(a1-3)]Man(b1-4)GlcNAc(b1-4)GlcNAc
# Summary of the method: as §1
# [10] = biological target: GlcNAc(b1-2)[GlcNAc(b1-6)]Man(a1-6)[GlcNAc(b1-2)Man(a1-3)]Man(b1-4)GlcNAc(b1-4)[Fuc(a1-6)]GlcNAc
# Summary of the method: as §1
# [11] = biological target: GlcNAc(b1-2)[GlcNAc(b1-6)]Man(a1-6)[GlcNAc(b1-4)][GlcNAc(b1-2)Man(a1-3)]Man(b1-4)GlcNAc(b1-4)GlcNAc
# Summary of the method: as §1
# GlcNAc(b1-3)Fuc = biological target: GlcNAc(b1-3)Fuc
# Summary of the method: as §1
# GlcNAc(b1-3)Gal = biological target: GlcNAc(b1-3)Gal
# Summary of the method: as §1
# [12] = biological target: GlcNAc(b1-3)Gal(b1-3)GalNAc
# Summary of the method: as §1
# GlcNAc(b1-3)Gal(b1-4)Glc = biological target: GlcNAc(b1-3)Gal(b1-4)Glc
# Summary of the method: as §1
# [13] = biological target: GlcNAc(b1-3)Gal(b1-4)GlcNAc
# Summary of the method: as §1
# [14] = biological target: GlcNAc(b1-3)Gal(b1-4)GlcNAc(b1-2)Man(a1-3)[GlcNAc(b1-3)Gal(b1-4)GlcNAc(b1-2)Man(a1-6)]Man(b1-4)GlcNAc(b1-4)GlcNAc
# Summary of the method: as §1
# [15] = biological target: GlcNAc(b1-3)Gal(b1-4)GlcNAc(b1-2)Man(a1-3)[GlcNAc(b1-3)Gal(b1-4)GlcNAc(b1-2)Man(a1-6)]Man(b1-4)GlcNAc(b1-4)[Fuc(a1-6)]GlcNAc
# Summary of the method: as §1
# [16] = biological target: GlcNAc(b1-3)Gal(b1-4)GlcNAc(b1-2)[GlcNAc(b1-3)Gal(b1-4)GlcNAc(b1-6)]Man(a1-6)[GlcNAc(b1-3)Gal(b1-4)GlcNAc(b1-2)Man(a1-3)]Man(b1-4)GlcNAc(b1-4)GlcNAc
# Summary of the method: as §1
# [17] = biological target: GlcNAc(b1-3)Gal(b1-4)GlcNAc(b1-3)Gal(b1-4)GlcNAc
# Summary of the method: as §1
# [18] = biological target: GlcNAc(b1-3)Gal(b1-4)GlcNAc(b1-3)Gal(b1-4)GlcNAc(b1-2)Man(a1-3)[GlcNAc(b1-3)Gal(b1-4)GlcNAc(b1-3)Gal(b1-4)GlcNAc(b1-2)Man(a1-6)]Man(b1-4)GlcNAc(b1-4)GlcNAc
# Summary of the method: as §1
# [19] = biological target: GlcNAc(b1-3)Gal(b1-4)GlcNAc(b1-3)Gal(b1-4)GlcNAc(b1-2)Man(a1-3)[GlcNAc(b1-3)Gal(b1-4)GlcNAc(b1-3)Gal(b1-4)GlcNAc(b1-2)Man(a1-6)]Man(b1-4)GlcNAc(b1-4)[Fuc(a1-6)]GlcNAc
# Summary of the method: as §1
binder,measurement,setting,value
Fm1D (Escherichia coli) (protein) FSCNVDGGSSIGAGTTSVYVNLDPVIQPGQNLVVDLSQHISCWNDYGGWYDTDHINLVQGSAFAGSLQSYKGSLYWNNVTYPFPLTTNTNVLDIGDKTPMPLPLKLYITPVGAAGGVVIKAGEVIARIHMYKIATLGSGNPRNFTWNIISNNSVVMPTHHHHHH,glycan array binding signal (z-score),[1],-0.146
same,glycan array binding signal (z-score),[2],-0.145
same,glycan array binding signal (z-score),[3],-0.143
same,glycan array binding signal (z-score),[4],-0.138
same,glycan array binding signal (z-score),[5],-0.145
same,glycan array binding signal (z-score),[6],-0.145
same,glycan array binding signal (z-score),[7],-0.146
same,glycan array binding signal (z-score),[8],-0.144
same,glycan array binding signal (z-score),[9],-0.141
same,glycan array binding signal (z-score),[10],-0.14
same,glycan array binding signal (z-score),[11],-0.149
same,glycan array binding signal (z-score),GlcNAc(b1-3)Fuc,-0.148
same,glycan array binding signal (z-score),GlcNAc(b1-3)Gal,-0.148
same,glycan array binding signal (z-score),[12],-0.142
same,glycan array binding signal (z-score),GlcNAc(b1-3)Gal(b1-4)Glc,-0.146
same,glycan array binding signal (z-score),[13],-0.146
same,glycan array binding signal (z-score),[14],-0.142
same,glycan array binding signal (z-score),[15],-0.142
same,glycan array binding signal (z-score),[16],-0.134
same,glycan array binding signal (z-score),[17],-0.146
same,glycan array binding signal (z-score),[18],-0.133
same,glycan array binding signal (z-score),[19],-0.137
